According to patent US20210324028A1 (Pfizer, published 2021):
Like-named read-outs stand apart in the source and are kept apart here.

T1: human IL-2Rβ (human, UniProt P14784 27-240, limits assumed)
T1 construct: also called hIL-2Rβ; IL-2 receptor beta
T1 sequence (looked up): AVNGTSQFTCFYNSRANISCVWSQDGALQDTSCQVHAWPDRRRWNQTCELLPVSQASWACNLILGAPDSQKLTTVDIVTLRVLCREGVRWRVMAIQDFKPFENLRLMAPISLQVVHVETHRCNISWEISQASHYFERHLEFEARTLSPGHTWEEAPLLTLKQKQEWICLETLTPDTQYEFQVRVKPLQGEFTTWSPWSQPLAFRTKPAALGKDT

T2: IL-15 signaling receptor on 32D[pRF770+pRF791] cells (human CD122 plus mouse CD132) (human; mouse, UniProt P14784 27-551; P34902 23-369)
T2 sequence (looked up) 1: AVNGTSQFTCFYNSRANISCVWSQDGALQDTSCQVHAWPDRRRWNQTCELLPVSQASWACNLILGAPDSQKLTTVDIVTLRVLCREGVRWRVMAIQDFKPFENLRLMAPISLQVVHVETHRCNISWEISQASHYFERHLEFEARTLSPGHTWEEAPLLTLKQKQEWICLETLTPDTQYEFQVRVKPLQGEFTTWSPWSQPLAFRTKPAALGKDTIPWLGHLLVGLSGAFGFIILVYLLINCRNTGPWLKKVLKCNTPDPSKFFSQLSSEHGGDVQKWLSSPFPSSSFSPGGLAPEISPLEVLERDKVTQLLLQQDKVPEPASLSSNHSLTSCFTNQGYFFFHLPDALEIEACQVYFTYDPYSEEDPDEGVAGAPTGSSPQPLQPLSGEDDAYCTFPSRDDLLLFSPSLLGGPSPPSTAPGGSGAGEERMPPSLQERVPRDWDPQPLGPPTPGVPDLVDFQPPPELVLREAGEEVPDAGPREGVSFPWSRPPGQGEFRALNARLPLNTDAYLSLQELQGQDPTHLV
T2 sequence (looked up) 2: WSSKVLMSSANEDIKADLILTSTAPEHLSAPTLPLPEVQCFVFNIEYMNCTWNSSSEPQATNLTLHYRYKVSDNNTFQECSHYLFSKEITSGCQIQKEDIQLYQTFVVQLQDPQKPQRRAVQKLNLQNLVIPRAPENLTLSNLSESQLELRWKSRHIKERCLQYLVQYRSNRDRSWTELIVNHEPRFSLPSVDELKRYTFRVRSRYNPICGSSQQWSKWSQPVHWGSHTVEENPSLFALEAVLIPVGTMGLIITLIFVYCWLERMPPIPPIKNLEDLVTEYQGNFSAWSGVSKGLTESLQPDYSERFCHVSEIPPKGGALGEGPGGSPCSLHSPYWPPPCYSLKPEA

T3: mouse PD-1 on doxycycline-induced 32D[pRF770+pRF791] cells (mouse, UniProt Q02242 25-288)
T3 sequence (looked up): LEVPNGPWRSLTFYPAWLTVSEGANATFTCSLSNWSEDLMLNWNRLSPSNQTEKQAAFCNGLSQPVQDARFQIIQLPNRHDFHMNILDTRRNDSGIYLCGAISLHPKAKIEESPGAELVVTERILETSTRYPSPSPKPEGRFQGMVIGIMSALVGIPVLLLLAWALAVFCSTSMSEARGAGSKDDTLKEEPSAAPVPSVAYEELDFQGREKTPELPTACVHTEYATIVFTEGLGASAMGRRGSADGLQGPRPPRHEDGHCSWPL

B1: xmPD-1-hIL15Rasu-hIL15(E64Q/D30N) (other)
heavy 1: HHHHHHHHGGGGSGSGGEVQLVESGGGLVKPGGSLELSCAASGFTFSSYWMSWVRQAPEKGLEWVAAISPSGGSTYYADSVKGRFTISRDNAKNTLFLQMTSLRSEDTAMYYCAKESWGAYYDLWGQGTTVTVSSASTKGPSVFPLAPCSRSTSESTAALGCLVKDYFPEPVTVSWNSGALTSGVHTFPAVLQSSGLYSLSSVVTVPSSNFGTQTYTCNVDHKPSNTKVDKTVERKCRVRCPRCPAPPVAGPSVFLFPPKPKDTLMISRTPEVTCVVVAVSHEDPEVQFNWYVDGVEVHNAKTKPREEQFNSTFRVVSVLTVVHQDWLNGKEYKCKVSNKGLPSSIEKTISKTKGQPREPQVYTLPPSREEMTKNQVSLTCLVKGFYPSDIAVEWESNGQPENNYKTTPPMLDSDGSFFLYSRLTVDKSRWQQGNVFSCSVMHEALHNHYTQKSLSLSPGK
heavy 2: EVQLVESGGGLVKPGGSLELSCAASGFTFSSYWMSWVRQAPEKGLEWVAAISPSGGSTYYADSVKGRFTISRDNAKNTLFLQMTSLRSEDTAMYYCAKESWGAYYDLWGQGTTVTVSSASTKGPSVFPLAPCSRSTSESTAALGCLVKDYFPEPVTVSWNSGALTSGVHTFPAVLQSSGLYSLSSVVTVPSSNFGTQTYTCNVDHKPSNTKVDKTVERKCEVECPECPAPPVAGPSVFLFPPKPKDTLMISRTPEVTCVVVAVSHEDPEVQFNWYVDGVEVHNAKTKPREEQFNSTFRVVSVLTVVHQDWLNGKEYKCKVSNKGLPSSIEKTISKTKGQPREPQVYTLPPSREEMTKNQVSLTCEVKGFYPSDIAVEWESNGQPENNYKTTPPMLDSDGSFFLYSKLTVDKSRWQQGNVFSCSVMHEALHNHYTQKSLSLSPGSGGGGGTSATATPGAITCPPPMSVEHADIWVKSYSLYSRERYICNSGFKRKAGTSSLTECVLNKATNVAHWTTPSLKCIRDPALVHQRPAPPSGGSGGGGSGGGSGGGGSGG[about 120 residues with changes left out here]
light: DIVMTQSPSSLSVSAGDKVTMSCRASQGISSWLAWYQQKPWQPPKLLIYKASTLESGVPDRFTGSGSGTDFTLTISSVQAEDLAVYYCQQSYSTPWTFGGGTKLEIKGTVAAPSVFIFPPSDEQLKSGTASVVCLLNNFYPREAKVQWKVDNALQSGNSQESVTEQDSKDSTYSLSSTLTLSKADYEKHKVYACEVTHQGLSSPVTKSFNRGEC
notes: not restated for this mutant
B2: xmPD1-IL15 V49K E46G (other)
heavy 1: B1 heavy 1
heavy 2: EVQLVESGGGLVKPGGSLELSCAASGFTFSSYWMSWVRQAPEKGLEWVAAISPSGGSTYYADSVKGRFTISRDNAKNTLFLQMTSLRSEDTAMYYCAKESWGAYYDLWGQGTTVTVSSASTKGPSVFPLAPCSRSTSESTAALGCLVKDYFPEPVTVSWNSGALTSGVHTFPAVLQSSGLYSLSSVVTVPSSNFGTQTYTCNVDHKPSNTKVDKTVERKCEVECPECPAPPVAGPSVFLFPPKPKDTLMISRTPEVTCVVVAVSHEDPEVQFNWYVDGVEVHNAKTKPREEQFNSTFRVVSVLTVVHQDWLNGKEYKCKVSNKGLPSSIEKTISKTKGQPREPQVYTLPPSREEMTKNQVSLTCEVKGFYPSDIAVEWESNGQPENNYKTTPPMLDSDGSFFLYSKLTVDKSRWQQGNVFSCSVMHEALHNHYTQKSLSLSPGSGGGGGTSATATPGA[about 120 residues with changes left out here]
light: B1 light
B3: xmPD1-IL15 V49K Y26K (other)
heavy 1: B1 heavy 1
heavy 2: EVQLVESGGGLVKPGGSLELSCAASGFTFSSYWMSWVRQAPEKGLEWVAAISPSGGSTYYADSVKGRFTISRDNAKNTLFLQMTSLRSEDTAMYYCAKESWGAYYDLWGQGTTVTVSSASTKGPSVFPLAPCSRSTSESTAALGCLVKDYFPEPVTVSWNSGALTSGVHTFPAVLQSSGLYSLSSVVTVPSSNFGTQTYTCNVDHKPSNTKVDKTVERKCEVECPECPAPPVAGPSVFLFPPKPKDTLMISRTPEVTCVVVAVSHEDPEVQFNWYVDGVEVHNAKTKPREEQFNSTFRVVSVLTVVHQDWLNGKEYKCKVSNKGLPSSIEKTISKTKGQPREPQVYTLPPSREEMTKNQVSLTCEVKGFYPSDIAVEWESNGQPENNYKTTPPMLDSDGSFFLYSKLTVDKSRWQQGNVFSCSVMHEALHNHYTQKSLSLSPGSGGGGGTSATATPGA[about 120 residues with changes left out here]
light: B1 light
B4: xmPD1-IL15 V49R/Y26K (other)
heavy 1: B1 heavy 1
heavy 2: EVQLVESGGGLVKPGGSLELSCAASGFTFSSYWMSWVRQAPEKGLEWVAAISPSGGSTYYADSVKGRFTISRDNAKNTLFLQMTSLRSEDTAMYYCAKESWGAYYDLWGQGTTVTVSSASTKGPSVFPLAPCSRSTSESTAALGCLVKDYFPEPVTVSWNSGALTSGVHTFPAVLQSSGLYSLSSVVTVPSSNFGTQTYTCNVDHKPSNTKVDKTVERKCEVECPECPAPPVAGPSVFLFPPKPKDTLMISRTPEVTCVVVAVSHEDPEVQFNWYVDGVEVHNAKTKPREEQFNSTFRVVSVLTVVHQDWLNGKEYKCKVSNKGLPSSIEKTISKTKGQPREPQVYTLPPSREEMTKNQVSLTCEVKGFYPSDIAVEWESNGQPENNYKTTPPMLDSDGSFFLYSKLTVDKSRWQQGNVFSCSVMHEALHNHYTQKSLSLSPGSGGGGGTSATATPGA[about 120 residues with changes left out here]
light: B1 light
B5: xmPD-1-hIL15 V49R/E46Q (other)
heavy 1: B1 heavy 1
heavy 2: EVQLVESGGGLVKPGGSLELSCAASGFTFSSYWMSWVRQAPEKGLEWVAAISPSGGSTYYADSVKGRFTISRDNAKNTLFLQMTSLRSEDTAMYYCAKESWGAYYDLWGQGTTVTVSSASTKGPSVFPLAPCSRSTSESTAALGCLVKDYFPEPVTVSWNSGALTSGVHTFPAVLQSSGLYSLSSVVTVPSSNFGTQTYTCNVDHKPSNTKVDKTVERKCEVECPECPAPPVAGPSVFLFPPKPKDTLMISRTPEVTCVVVAVSHEDPEVQFNWYVDGVEVHNAKTKPREEQFNSTFRVVSVLTVVHQDWLNGKEYKCKVSNKGLPSSIEKTISKTKGQPREPQVYTLPPSREEMTKNQVSLTCEVKGFYPSDIAVEWESNGQPENNYKTTPPMLDSDGSFFLYSKLTVDKSRWQQGNVFSCSVMHEALHNHYTQKSLSLSPGSGGGGGTSATATPGA[about 120 residues with changes left out here]
light: B1 light
notes: not restated for this mutant; also called xmPD1-IL15 V49R/E46Q

Key:
human IL-15Rα = biological target: T4, human IL-15Rα (human, UniProt Q13261 31-205, limits assumed); experiment: SPR 37C, fusion captured by anti-human Fc
T4 construct: also called hIL-15Rα; IL-15 receptor alpha
Procedure: (§1) Anti-human Fc sensor chips were prepared at 25° C. with a running buffer of 10 mM HEPES, 150 mM NaCl, 0.05% (v/v) Tween-20, pH 7.4. All surfaces of a Biacore CM4 sensor chip were activated with a 1:1 (v/v) mixture of 400 mM EDC and 100 mM NHS for 7 minutes, at a flow rate of 10 μL/min. An anti-human Fc reagent (Goat anti-human IgG Fc-γ specific, SouthernBiotech, Birmingham, Ala., Catalog #2014-01) was diluted to 50 μg/mL in 10 mM sodium acetate (pH 4.5) and injected on all flow cells for 7 minutes at 20 μL/min. All flow cells were blocked with 100 mM ethylenediamine in 200 mM Borate buffer pH 8.5 for 7 minutes at 10 μL/min.
(§2) All protein interaction experiments were performed at 37° C. using a running buffer of 10 mM HEPES, 150 mM NaCl, 0.05% (v/v) Tween-20, pH 7.4, 1 mg/mL BSA. Anti-PD-1-hIL-15 fusion proteins were captured at 10 μg/mL at a flow rate of 10 μL/min for 2 minutes. Different fusion proteins were captured in flow cells 2, 3 and 4. No protein was captured onto flow cell 1 which was used as a reference surface. […] After each analyte injection, dissociation was monitored for 5 minutes followed by regeneration of all flow cells with three 60-second injections of 75 mM phosphoric acid. […] For kinetic analysis, the double-referenced sensorgrams were fit globally to a simple 1:1 Langmuir with mass transport binding model using Biacore T200 Evaluation Software version 2.0. For steady-state affinity analysis, the double-referenced equilibrium binding responses were fit with a 1:1 Langmuir steady-state model using Biacore T200 Evaluation Software version 2.0.

human IL-2Rβ = biological target: T1, human IL-2Rβ; experiment: SPR, steady state, fusion captured
Procedure: as §1, §2

[1] = biological target: T2, IL-15 signaling receptor on …; experiment: cell-based or functional assay
[2] = biological target: T3, mouse PD-1 on doxycycline-induced …; experiment: cell-based or functional assay
[3] = biological target: T2, IL-15 signaling receptor on …; experiment: cell-based or functional assay; remark: listed apart in the source
[4] = biological target: T3, mouse PD-1 on doxycycline-induced …; experiment: cell-based or functional assay; remark: listed apart in the source
[5] = biological target: T2, IL-15 signaling receptor on …; experiment: cell-based or functional assay; remark: listed apart in the source
[6] = biological target: T3, mouse PD-1 on doxycycline-induced …; experiment: cell-based or functional assay; remark: listed apart in the source

Chain of human IL-15Rα (Q13261 31-205 limits assumed): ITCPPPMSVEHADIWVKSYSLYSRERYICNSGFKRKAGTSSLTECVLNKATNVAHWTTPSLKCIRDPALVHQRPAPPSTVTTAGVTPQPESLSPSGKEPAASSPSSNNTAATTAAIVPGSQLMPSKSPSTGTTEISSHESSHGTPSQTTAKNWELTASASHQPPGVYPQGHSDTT

| Binder | binding result (human IL-15Rα) | Kd (human IL-2Rβ) [nM] | pSTAT5 EC50 on PD-1(low) 32D reporter cells [3] [nM] | Fold change = EC50 (PD-1(low))/EC50 (PD-1+) [4] [fold] | pSTAT5 EC50 on PD-1+ 32D reporter cells [4] [pM] | pSTAT5 EC50 on PD-1(low) 32D reporter cells [5] [nM] | Fold change = EC50 (PD-1(low))/EC50 (PD-1+) [6] [fold] | pSTAT5 EC50 on PD-1+ 32D reporter cells [6] [pM] | other results |
| --- | --- | --- | --- | --- | --- | --- | --- | --- | --- |
| B1 | no binding (tested: 3000 nM) | 271 |  |  |  |  |  |  | pSTAT5 EC50 on PD-1(low) 32D reporter cells [1]: 24.9 nM; Fold change = EC50 (PD-1(low))/EC50 (PD-1+) [2]: 360 fold; pSTAT5 EC50 on PD-1+ 32D reporter cells [2]: 69 pM |
| B2 |  |  | 3.98 | 503 | 7.9 |  |  |  |  |
| B3 |  |  | 3.98 | 227 | 17.5 |  |  |  |  |
| B4 |  |  |  |  |  | 0.854 | 207 | 4.12 |  |
| B5 | no binding (tested: 3000 nM) | 560 |  |  |  | 1.33 | 455 | 2.94 |  |
